Measurements as given in the RNAGym collection of RNA variant scans (doi:10.1093/nar/gkz1192).
Read counts are not given, so values of variants with three or more changes are uncertain.

B1: CPEB3 Ribozyme (parent)
chain: UAACAGGGGGCCACAGCAGAAGCGUUCACGUCGCAGCCCCUGUCAGAUUCUGGUGAAUCUGCGAAUUCUGCUGUAUAUCUC

Variants of: B1
Assay: self-cleavage, relative activity (ratio to wild type); higher = more cleavage; in vitro, sequencing
In short: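 Barcoded CPEB3 ribozyme mutants, produced by rounds of error-prone PCR, self-cleaved while being transcribed with T7 RNA polymerase for 5 hours at 37°C and during a subsequent 15 min DNase I step before EDTA was added. Sequencing of template-switched cDNA on Illumina gave cleaved and total reads, and DNA sequencing assigned barcodes to variants. Each variant's relative activity is its cleaved/total read fraction divided by the unmutated ribozyme's fraction, averaged across three batches. A variant needed a minimum of 5 reads.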

| Variant | self-cleavage |
| --- | --- |
| A5G C44A A47G | 0.35 |
| A5G U31C A47G A56G U60C A77G U78C | 0.12 |
| A5G U49C A64G | 0.11 |
| A5G G42C U58C U72C | 0.11 |
| A5G G8U U25C U31C | 0.3 |
| A5G G7U A47G U60C | 0.22 |
| A5G U66C U67C U74A | 0.58 |
| A5G U41A A47G U51A U69C | 0.33 |
| A5G U43C A47C U54C U67C | 0.31 |
| A5G U49C G52C U67C U69A | 0.19 |
| A5G U31C C32U | 0.19 |
| A5G U43A A56G U80C | 0.4 |
| A5G U41C U43C | 0.12 |
| A5G G7A U72C | 0.49 |
| A5G G9U A47G | 0.18 |
| A5G U25A C40U | 0.13 |
| A5G U43C A45G A47G U48C A57G U72A | 0.13 |
| A5G U41C U43A A57G U66C | 0.15 |
| A5G U25C A28G A45C U58C U69A | 0 |
| A5G G6A C11U | 0.31 |
| A5G G7U A18U | 0.25 |
| A5G G8U C32U U58C U66C | 0.08 |
| A5G C68A U72C | 0.16 |
| A5G U41C A56U | 0.47 |

| Variant | self-cleavage |
| --- | --- |
| A5G U51C G55A U76A | 0.41 |
| A5G U43C U51G U69C | 0.08 |
| A5G U66C A75G | 0.37 |
| A5G U25C G61A C62U U72A | 0.07 |
| A5G U43C C79U | 0 |
| A5G G33C U54A | 0.3 |
| A5G G9A A21U A35U C39A U60A U74C | 0.05 |
| A5G G6A U26C C62A | 0.28 |
| A5G U25C U51C U80C | 0.15 |
| A5G U54A A57G C59U | 0.38 |
| A5G G9A U41A U48C A65G U80C | 0.06 |
| A5G U43C U54C U67C | 0.24 |
| A5G U26C A56U U67C | 0.05 |
| A5G U43C U51C U67C | 0.46 |
| A5G G10C A18U C27G U31C A45G C50A | 0.23 |
| A5G G6U A18U U25C C39U | 0 |
| A5G G6U A13U U41C U76C | 0.53 |
| A5G G16A A18U A64G | 0.22 |
| A5G G16A U43C U76A U80A | 0.08 |
| A5G G10U A20U G53A | 0.36 |
| A5G G8A U43A A45U | 0.24 |
| A5G U25C A56G A57G | 0.04 |
| A5G G10A A18U | 0.23 |
| A5G U41C U48C A64U | 0.19 |

| Variant | self-cleavage |
| --- | --- |
| A5G G52A U54A | 0.54 |
| A5G U26C U67C U69C A75U | 0.15 |
| A5G C38U A56C | 0.22 |
| A5G G24A A28G A45C U49C A64G | 0.39 |
| A5G U26C A35G A64U A65G U69C | 0.14 |
| A5G G16U A64G U69A | 0.04 |
| A5G U25C U41A G52A | 0.45 |
| A5G G6A G8A U51C A64U | 0.06 |
| A5G U48C U60A | 0.42 |
| A5G U31C U41C A45G | 0.58 |
| A5G G7U A15G U41A U51C | 0.08 |
| A5G U25C G52A | 0.38 |
| A5G G6A A35U A56G U69C | 0.08 |
| A5G U43C A64G | 0.18 |
| A5G G10A C29U G30C U72C | 0.07 |
| A5G G9A A18U A35U U69C | 0.07 |
| A5G G9A A13U A21G U78A | 0.06 |
| A5G G6A G33A A35G U74C U80C | 0.24 |
| A5G G42C U60C | 0.11 |
| A5G G10U A20C U60C G73A | 0.56 |
| A5G G22U U26A | 0.37 |
| A5G U26A G70A U72C | 0.07 |
| A5G G10C U43A A45G U48C | 0.32 |
| A5G U26A A65G | 0.32 |

| Variant | self-cleavage |
| --- | --- |
| A5G G8A C14U A18G A20G C23U | 0.26 |
| A5G U41C U43A U66C U80A | 0.22 |
| A5G G10C A20G A65U | 0.3 |
| A5G U25C U41A | 0.44 |
| A5G U41C U60C A64G U80A | 0.09 |
| A5G U25A A35G U58A U66C U80C | 0.1 |
| A5G U26C C32A | 0.03 |
| A5G U26A U51C U54A A65G | 0.07 |
| A5G U25G U60C | 0.13 |
| A5G G10C A20G C44A A64U U66A G70A | 0.27 |
| A5G G9U U31A U43A U58C U72C | 0.04 |
| A5G G53A G73A | 1.21 |
| A5G G8C U25A A28G U43C U80C | 0.12 |
| A5G U31A U54A U78C | 0.51 |
| A5G G10C U67A | 0.51 |
| A5G G53A A65G | 0.23 |
| A5G U26A A56G A57U | 0.27 |
| A5G G10A U41A U72A U76C | 0.13 |
| A5G U60C U72C U78C U80C | 0.22 |
| A5G U41A C62U A65G A77U | 0.48 |
| A5G G6A G7A | 0.43 |
| A5G U25C U69G U72C | 0.37 |
| A5G G8U A21G U26A U48C U60G | 0.07 |
| A5G G6A U25C U80C | 0.09 |

| Variant | self-cleavage |
| --- | --- |
| A5G U48A A64U | 0.3 |
| A5G G46A G63U | 0.42 |
| A5G C39A U58C U67C U69A | 0.56 |
| A5G G9A U25C U49C A56G U58A | 0.07 |
| A5G U26A U51A U72C U78C | 0.29 |
| A5G G9U A35U A47U U78C | 0.18 |
| A5G G9A A20G U25A U41A U69C | 0.07 |
| A5G U49A A64U | 0.1 |
| A5G U43A A64G A65G | 0.17 |
| A5G G10A U67A | 0.23 |
| A5G U41C G42C U66C | 0.09 |
| A5G U54C A65G | 0.32 |
| A5G U25A U60C A64G | 0.42 |
| A5G G8A U43A U74A | 0.7 |
| A5G C40U G42A U43C A45G U49C A75G | 0.09 |
| A5G G7C G46U U80A | 0.25 |
| A5G G8A U51A A64G U72C A77G | 0.05 |
| A5G U25A C32A U60C C79U | 0.06 |
| A5G U43A A57G U78C U80A | 0.22 |
| A5G U25C G52A U80A | 0.09 |
| A5G U26C U54C U74C A77U | 0.61 |
| A5G U43C A47G | 0.13 |
| A5G G8U A20G C50U U54C | 0.17 |
| A5G U31A U41C U69C | 0.38 |

| Variant | self-cleavage |
| --- | --- |
| A5G G9A A35U A64U U69C | 0.2 |
| A5G U48C A56U U58C C59G | 0.14 |
| A5G G33A U49A A64U | 0.24 |
| A5G G53A U54C U66A | 0.34 |
| A5G G33A U43C U58C U69C | 0.1 |
| A5G G6U A64U U67C | 0.09 |
| A5G U48C U51A U58C U69C | 0.28 |
| A5G C62A U69A U72A | 0.12 |
| A5G U25C U31C A35G | 0.53 |
| A5G G8A G33A | 0.3 |
| A5G U51A U54C U66G | 0.14 |
| A5G U41A U54C A56U U58C U69A | 0.05 |
| A5G G53U A57G A65G C79U | 0.18 |
| A5G G9A U25C A35U U51A | 0.05 |
| A5G G9A A15G G55U | 0.16 |
| A5G U25C G33C A57G U78C | 0.06 |
| A5G G30C A45G A57G U72C | 0.07 |
| A5G U48C U58C A65G U69C A75G | 0.27 |
| A5G U43C U54C A64U | 0.2 |
| A5G G8A U26A A47G A77G | 0.05 |
| A5G U26G A45G | 0.51 |
| A5G U41A U58C | 0.17 |
| A5G C34U U60C | 0.39 |
| A5G G9A A20U A45G | 0.36 |

| Variant | self-cleavage |
| --- | --- |
| A5G U41C U66A | 0.07 |
| A5G U48C U58G | 0.05 |
| A5G C34G C40A A64G U76A U78C | 0.22 |
| A5G U43C U69C U78C | 0.22 |
| A5G U54C U76C | 0.89 |
| A5G U26C A35G | 0.9 |
| A5G U26A U80A | 0.72 |
| A5G G16A A45G U67C | 0.14 |
| A5G G6A G8A C14U A28U U54C | 0.05 |
| A5G U31C C37U U74C | 0.53 |
| A5G U25C A28U U66C A75C | 0.13 |
| A5G G42U G53U A57G U72C | 0.06 |
| A5G G9U C37G A47U U49C G63U U72C | 0.04 |
| A5G U25C C32U A45G | 0.1 |
| A5G G30A U54G A57G A77G | 0.19 |
| A5G U43C U48A A75G | 0.07 |
| A5G G55U U78C | 0.35 |
| A5G C40U U69C | 0.24 |
| A5G U67C G73A | 0.17 |
| A5G G9A U26C | 0.08 |
| A5G U49A U54C | 0.13 |
| A5G G24A G33U G36A U43C U58A U66C | 0.05 |
| A5G G24A A35U A56G U80C | 0.1 |
